Measurements reported in US20030171435A1 (priority 2002, published 2003).

tested on: 6H5D1C4; test: Competition ELISA, cross reactivity with methamphetamine analogs, mAb 6H5D1C4; conditions: % inhibition as compared with the antigen Met1

Which “Cross reactivity with analogs, 6H5D1C4” value does the source give for `COc1ccc(CCN)cc1O` [3-hydroxy-4-methoxyphenetylalamine] here?
Its value is 1%.

How did the “Cross reactivity with analogs, 6H5D1C4” value turn out when `NCCc1ccc(O)c(O)c1` [3-hydroxytyramine] was run?
Its value is 1%.

How did the “Cross reactivity with analogs, 6H5D1C4” value turn out when `COc1ccc(CC(C)N)cc1` (centres unmarked) [4-methoxyamphetamine] was run?
Its value is 16%.

With `CNC(C)Cc1ccc(OC)cc1` (centres unmarked) [4-methoxymetamphetamine] as the compound, how does the “Cross reactivity with analogs, 6H5D1C4” value read?
Its value is 8%.

Which “Cross reactivity with analogs, 6H5D1C4” value does the source give for `CSc1ccc(CC(C)N)cc1` (centres unmarked) [4-methylthioamphetamine] here?
Its value is 100%.

`CC(N)Cc1ccccc1` (centres unmarked) [Amphetamine] was tested. Which “Cross reactivity with analogs, 6H5D1C4” value did it give?
The value was 1%.

With `CNC(C)Cc1ccc2c(c1)OCO2` (centres unmarked) [Ecstasy, 3,4-methylenedioxymethamphetamine] as the compound, how does the “Cross reactivity with analogs, 6H5D1C4” value read?
Its value is 6%.

Which “Cross reactivity with analogs, 6H5D1C4” value does the source give for `CNC[C@H](O)c1ccc(O)c(O)c1` [Epinephrine] here?
Its value is 1%.

With `C[C@@H](Cc1ccccc1)N(C)CC(=O)O` [Hapten 1 (Met1)] as the compound, how does the “Cross reactivity with analogs, 6H5D1C4” value read?
Its value is 100%.

Which “Cross reactivity with analogs, 6H5D1C4” value does the source give for `CN[C@@H](C)Cc1ccccc1` [Methamphetamine] here?
The value was 68%.

With `C[C@@H]([C@@H](O)c1ccccc1)N(C)C` [Methyl pseudo ephedrine] as the compound, how does the “Cross reactivity with analogs, 6H5D1C4” value read?
The value was 2%.

How did the “Cross reactivity with analogs, 6H5D1C4” value turn out when `CCNC(C)Cc1ccccc1` (centres unmarked) [N-ethylamphetamine] was run?
Its value is 72%.

With `CC(N)C(O)c1ccccc1` (centres unmarked) [Nor-ephedrine] as the compound, how does the “Cross reactivity with analogs, 6H5D1C4” value read?
Its value is 1%.

tested on: 3A10A6A2; test: Competition ELISA, cross reactivity with methamphetamine analogs, mAb 3A10A6A2; conditions: % inhibition as compared with the antigen Met1

For `COc1ccc(CCN)cc1O` [3-hydroxy-4-methoxyphenetylalamine], which “Cross reactivity with analogs, 3A10A6A2” value is on record?
Its value is 2%.

With `NCCc1ccc(O)c(O)c1` [3-hydroxytyramine] as the compound, how does the “Cross reactivity with analogs, 3A10A6A2” value read?
The value was 2%.

How did the “Cross reactivity with analogs, 3A10A6A2” value turn out when `COc1ccc(CC(C)N)cc1` (centres unmarked) [4-methoxyamphetamine] was run?
The value was 79%.

Which “Cross reactivity with analogs, 3A10A6A2” value does the source give for `CNC(C)Cc1ccc(OC)cc1` (centres unmarked) [4-methoxymetamphetamine] here?
Its value is 6%.

Which “Cross reactivity with analogs, 3A10A6A2” value does the source give for `CSc1ccc(CC(C)N)cc1` (centres unmarked) [4-methylthioamphetamine] here?
The value was 58%.

How did the “Cross reactivity with analogs, 3A10A6A2” value turn out when `CC(N)Cc1ccccc1` (centres unmarked) [Amphetamine] was run?
Its value is 29%.

How did the “Cross reactivity with analogs, 3A10A6A2” value turn out when `CNC(C)Cc1ccc2c(c1)OCO2` (centres unmarked) [Ecstasy, 3,4-methylenedioxymethamphetamine] was run?
Its value is 209%.

How did the “Cross reactivity with analogs, 3A10A6A2” value turn out when `CNC[C@H](O)c1ccc(O)c(O)c1` [Epinephrine] was run?
The value was 3%.

How did the “Cross reactivity with analogs, 3A10A6A2” value turn out when `C[C@@H](Cc1ccccc1)N(C)CC(=O)O` [Hapten 1 (Met1)] was run?
Its value is 100%.

With `CN[C@@H](C)Cc1ccccc1` [Methamphetamine] as the compound, how does the “Cross reactivity with analogs, 3A10A6A2” value read?
Its value is 229%.

For `C[C@@H]([C@@H](O)c1ccccc1)N(C)C` [Methyl pseudo ephedrine], which “Cross reactivity with analogs, 3A10A6A2” value is on record?
Its value is 38%.

`CCNC(C)Cc1ccccc1` (centres unmarked) [N-ethylamphetamine] was tested. Which “Cross reactivity with analogs, 3A10A6A2” value did it give?
The value was 54%.

Which “Cross reactivity with analogs, 3A10A6A2” value does the source give for `CC(N)C(O)c1ccccc1` (centres unmarked) [Nor-ephedrine] here?
The value was 2%.
